We go through 90 molecules from publication PMC4336329 (PLoS ONE, 2015).

The whole screen tested about 310,000 compounds, of which about 2,200 (0.71%) showed an effect of 50% or more. The effect is printed as a negative number. The list shows a part of the results.

Chain of human ether-à-go-go-related gene (hERG) potassium channel (Q12809 whole entry, looked up): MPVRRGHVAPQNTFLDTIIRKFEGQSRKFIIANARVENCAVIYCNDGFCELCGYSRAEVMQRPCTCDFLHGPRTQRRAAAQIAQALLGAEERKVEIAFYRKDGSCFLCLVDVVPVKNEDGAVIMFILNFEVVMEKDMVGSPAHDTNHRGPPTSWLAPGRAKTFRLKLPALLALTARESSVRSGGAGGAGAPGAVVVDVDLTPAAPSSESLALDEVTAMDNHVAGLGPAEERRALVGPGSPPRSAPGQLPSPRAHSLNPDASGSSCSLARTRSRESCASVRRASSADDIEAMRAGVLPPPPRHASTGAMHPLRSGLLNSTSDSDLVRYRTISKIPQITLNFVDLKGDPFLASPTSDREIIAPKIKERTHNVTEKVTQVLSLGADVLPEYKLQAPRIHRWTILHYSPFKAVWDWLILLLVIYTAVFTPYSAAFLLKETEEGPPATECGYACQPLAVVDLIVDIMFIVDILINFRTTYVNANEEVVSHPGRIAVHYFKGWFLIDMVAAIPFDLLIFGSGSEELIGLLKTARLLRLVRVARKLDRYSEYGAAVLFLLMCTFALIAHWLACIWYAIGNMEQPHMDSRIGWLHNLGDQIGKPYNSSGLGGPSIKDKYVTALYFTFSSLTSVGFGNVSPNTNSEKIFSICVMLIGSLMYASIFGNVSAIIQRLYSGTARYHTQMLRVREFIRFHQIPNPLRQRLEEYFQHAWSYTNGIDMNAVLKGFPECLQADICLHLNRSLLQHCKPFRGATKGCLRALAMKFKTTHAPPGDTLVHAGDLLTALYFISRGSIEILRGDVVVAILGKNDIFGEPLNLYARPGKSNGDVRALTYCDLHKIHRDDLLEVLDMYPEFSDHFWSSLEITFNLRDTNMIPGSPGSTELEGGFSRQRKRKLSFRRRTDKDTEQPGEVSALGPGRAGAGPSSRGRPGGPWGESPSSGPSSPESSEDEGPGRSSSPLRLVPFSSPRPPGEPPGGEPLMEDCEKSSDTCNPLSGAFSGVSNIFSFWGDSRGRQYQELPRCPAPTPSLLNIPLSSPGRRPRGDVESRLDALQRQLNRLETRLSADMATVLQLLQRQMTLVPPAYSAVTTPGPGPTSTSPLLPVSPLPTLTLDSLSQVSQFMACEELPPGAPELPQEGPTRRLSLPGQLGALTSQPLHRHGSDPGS

This assay addresses human ether-à-go-go-related gene (hERG) potassium channel (human, UniProt Q12809). In words: primary screen, population patch clamp on CHO cells stably expressing hERG.
For `CCOC(=O)c1ccn(CSc2c(F)c(F)cc(F)c2F)n1`, the “hERG current change (%, negative = inhibition) at 1uM” value stood at 7.48%.
In the case of `CCN(CC)C(=O)c1cc2c(=O)n3cccc(C)c3nc2s1` it was 16.4%; in that of `NC(=O)C1CCN(C(=O)CN(c2cccc(Cl)c2)S(=O)(=O)c2ccccc2)CC1`, 13.7%; in that of `CCCc1ncc(C(O)(c2ccccc2)c2ccc(C)cc2)n1C` (stereo not drawn), 8.82%.
In the case of `Cc1nc2cc(-c3ccccc3)ccc2o1` it was 4.59%; in that of `CCCNC(=O)c1onc(CSc2ccc(F)cc2)c1C(=O)NCC1CC1`, -4.01%; in that of `O=C(c1ccc(N2CCCCC2)c([N+](=O)[O-])c1)N1CCN(S(=O)(=O)c2ccccc2)CC1`, -18%.
`CN(CC(=O)Nc1ccccc1Cl)C(=O)COC(=O)c1ccccc1[N+](=O)[O-]`: the “hERG current change (%, negative = inhibition) at 1uM” value is 6.6%.
In the case of `CCN(CC)CCn1c(=S)[nH]c2ccccc2c1=O`, the “hERG current change (%, negative = inhibition) at 1uM” value was -2.59%.
With `CCOC(=O)Cn1cc([N+](=O)[O-])c(OC)n1`, the “hERG current change (%, negative = inhibition) at 1uM” value was determined as 12.2%.
Consider `Cc1ccccc1/C=C/c1cccc[n+]1C.[I-]`, for which the “hERG current change (%, negative = inhibition) at 1uM” value was 17%.
Under `O=C(COC(=O)CCNS(=O)(=O)c1ccccc1F)Nc1nnc(-c2ccccc2)o1` stands 8.19%; under `C=CCNC(=O)c1ccccc1NC(=O)c1cccc2ccccc12`, 16%.
`CCOC(=O)C1(Cc2ccccc2C)CCCN(C(=O)c2ccoc2)C1` (stereo not drawn): the “hERG current change (%, negative = inhibition) at 1uM” value is listed as -8.32%.
In the case of `O=C(NC(=S)Nc1cc(C(F)(F)F)ccc1N1CCOCC1)c1sc2ccccc2c1Cl` it was 6.08%.
With `Cc1cc(N2CCCCC2)nc2ccc(NC(=O)c3ccc(Br)o3)cc12`, the “hERG current change (%, negative = inhibition) at 1uM” value worked out at 5.31%.
Under `CCN(c1ccc(OC)cc1)S(=O)(=O)N1CCCC(C(=O)NCc2cccc(C)c2)C1` (stereo not drawn) stands 21.6%; under `Fc1ccc(Nc2cccc3nccnc23)cc1`, -0.473%; under `CCn1cc(C(=O)Nc2ccc(NC(=O)c3ccco3)cc2)c(=O)c2ccc(C)nc21`, -2.53%.
In the case of `COc1ccc(NC(=O)N2CC(C)OC(C)C2)cc1OC` (stereo not drawn) it was 9.39%; in that of `COc1ccccc1C(=O)OCCNC(=O)Cn1cnc2c1c(=O)n(C)c(=O)n2C`, 17.9%.
Under `CCOc1ccc(NC(=O)c2csc3c2CCCC3)cc1` stands 8.02%.
`Cc1ccccc1-n1ccnc1SCC(=O)NCc1ccco1`: the “hERG current change (%, negative = inhibition) at 1uM” value is given as 3.13%.
Regarding `Cc1ccc(NC(=O)CN(C(=O)N2CCN(C)CC2)S(=O)(=O)c2ccc(C)cc2)cc1`, the “hERG current change (%, negative = inhibition) at 1uM” value is recorded as -2.04%.
In the case of `COc1ccc(CNc2ccc(Br)cc2)cc1`, the “hERG current change (%, negative = inhibition) at 1uM” value is reported as 9.54%.
Under `Cc1nc2ccccc2nc1N1CCCC1` stands 1.6%.
Turning to `O=c1cc(CSc2nc3cc(Cl)ccc3o2)nc2sccn12`, the “hERG current change (%, negative = inhibition) at 1uM” value is recorded as 15.3%.
In the case of `CN(C)C(=O)N=NC(=O)N(C)C` it was 10.6%; in that of `O=c1cc(C23CC4CC(CC(C4)C2)C3)[nH][nH]1`, 7.14%.
In the case of `Cc1cnc(NCCc2ccccc2)s1` it was 17.8%.
In the case of `O=C(CN1C(=O)NC2(CCCC2)C1=O)Nc1ccccc1N1CCCCC1`, the “hERG current change (%, negative = inhibition) at 1uM” value is reported as 12.9%.
Under `CCCCOc1ccc(/C=N/NC(=O)C2CCCNC2=O)cc1` (stereo not drawn) stands 8.65%; under `CCc1nc(NCCN)c(C#N)c2c1CSC(C)(C)C2`, 6.83%; under `COc1ccc(Nc2oc(-c3ccc(F)cc3)nc2C#N)cc1`, 12.2%.
Under `CC(=O)Nc1ccc(/C=N/NC(=O)CNS(=O)(=O)c2ccccc2)cc1` stands 11%.
`CCc1cc(=O)oc2cc(C)cc(OCc3nn[nH]n3)c12`: the “hERG current change (%, negative = inhibition) at 1uM” value is listed as 2.42%.
In the case of `C=Cc1ccc(C(=O)NC2CCCN(Cc3ccccc3F)C2)cc1` (stereo not drawn) it was 11.6%; in that of `CCc1cc2c(=O)n(Cc3ccco3)c(SCc3c(C)noc3C)nc2s1`, 1.03%; in that of `O=C(N/C(=C\c1ccc(Cl)cc1)C(=O)N1CCOCC1)c1ccco1`, -2.55%.
In the case of `O=C(/C=C/NNC(=O)c1ccccc1O)c1ccccc1` it was 7.98%; in that of `COCCSc1ccccc1C(=O)NCc1ccc(S(N)(=O)=O)cc1`, -0.445%; in that of `CCOC(=O)C1(CCOc2ccccc2)CCN(Cc2cccc(OCCO)c2)CC1`, -84.4%.
Under `O=C(CCN1C(=O)COc2ccccc21)NCCCN1CCN(c2ccccc2F)CC1` stands -24.7%; under `CC(=O)Nc1ccc2ccc3cccc4ccc1c2c34`, 6.56%.
Consider `Cc1ccccc1Cn1ccc(NC(=O)c2cc3nc(-c4ccco4)cc(C(F)(F)F)n3n2)n1`, for which the “hERG current change (%, negative = inhibition) at 1uM” value was determined as 14%.
In the case of `CCOc1ccc(Cl)cc1CNCCCSc1nc(C)cc(C)n1.Cl` it was -14.8%.
Under `CCn1cc([N+](=O)[O-])c(C(=O)N2N=C(c3ccccc3)CC2c2ccc([N+](=O)[O-])cc2)n1` (stereo not drawn) stands 2.85%; under `Cc1cccc(-n2nnc(C(=O)NCc3ccco3)c2N)c1`, 9.15%.
For `O=[N+]([O-])c1ccc(N2CCCC2)nc1`, the “hERG current change (%, negative = inhibition) at 1uM” value came out at 13.1%.
Under `COc1cc(Cl)c(C)cc1NC(=O)CN1CCN(C(=O)C2CC2)CC1` stands -33.9%.
Under `COc1ccc(CN2CSC(=S)N(Cc3ccccc3)C2)cc1` stands 11.8%.
Regarding `C/C(=C\C(=O)c1ccc(Br)cc1)NCc1ccccc1`, the “hERG current change (%, negative = inhibition) at 1uM” value is given as 18.5%.
With `O=C(Nc1ccc2c(c1)OCO2)c1cnn2cccnc12`, the “hERG current change (%, negative = inhibition) at 1uM” value is listed as 8.33%.
Consider `CCc1ccc(C2C(=O)c3ccccc3C2=O)cc1`, for which the “hERG current change (%, negative = inhibition) at 1uM” value is 12.4%.
With `CCOC(=O)CSCC(NC(=O)OC(C)(C)C)C(=O)OCC` (stereo not drawn), the “hERG current change (%, negative = inhibition) at 1uM” value is listed as 7.77%.
In the case of `O=C(O)c1ccc(NC(=O)c2ccccc2NC(=O)c2cccc(F)c2)cc1` it was 16.6%.
Consider `C=CCN(c1ccccc1Cl)S(=O)(=O)c1cc(C(=O)N2CCCC2)ccc1Cl`, for which the “hERG current change (%, negative = inhibition) at 1uM” value was determined as 9.06%.
Consider `COCc1cccc(C2=CC(=O)C[C@H](c3ccc(OC)cc3)C2)c1`, for which the “hERG current change (%, negative = inhibition) at 1uM” value is 12.5%.
Take `COc1ccc(NC(C)=O)cc1S(=O)(=O)Nc1ccccc1C(=O)NCCc1ccccc1`: the “hERG current change (%, negative = inhibition) at 1uM” value turned out to be 12%.
In the case of `O=C(CCc1nc(-c2ccccc2)no1)NC1CCCCC1` it was 0.0707%.
Under `COc1ccc(CN2CCCC(C(=O)c3ccc(Cl)cc3)C2)cc1Cn1cncn1` (stereo not drawn) stands -59.9%.
On to `Cc1ccc(S(=O)(=O)NCCCC(=O)C=[N+]=[N-])cc1`, for which the “hERG current change (%, negative = inhibition) at 1uM” value came to 10.1%.
Turning to `CC1CCc2sc(NC(=S)NC(=O)c3ccccc3)c(C#N)c2C1` (stereo not drawn), the “hERG current change (%, negative = inhibition) at 1uM” value is -5.64%.
In the case of `O=C(CSc1n[nH]c(-c2ccccc2)n1)N1CCOCC1` it was 14.7%; in that of `Cc1csc(NC(=O)c2oc3ccccc3c2C)n1`, 13.2%.
For the molecule `Cc1ccc(C)c(N(C)C(=O)c2cc3c(=O)[nH]c4ccc(C)cc4c3s2)c1`, the “hERG current change (%, negative = inhibition) at 1uM” value was 4.33%.
In the case of `COc1ccc(N2CCN(C(=O)CCCN3C(=O)c4cccc5cccc(c45)C3=O)CC2)cc1`, the “hERG current change (%, negative = inhibition) at 1uM” value came out at 20.3%.
For `COc1ccc(NC(=O)CSc2nc(NS(=O)(=O)c3ccc(C)cc3)cc(=O)[nH]2)cc1`, the “hERG current change (%, negative = inhibition) at 1uM” value was found to be 9.68%.
In the case of `Cn1c(C(=O)NCc2ccccc2)cc2oc3ccccc3c21` it was 7.9%; in that of `CCc1nc2ccccc2c(=O)n1-c1ccc2ccccc2c1`, 0.76%; in that of `COc1ccc(NC(=O)CSc2nnc(-c3ccccc3F)n2C2CC2)cc1S(N)(=O)=O`, 12.4%.
Under `Cc1cc(C)n(C(=O)Cn2nc([N+](=O)[O-])c(Br)c2C)n1` stands 9.42%.
In the case of `CC(C)N1CCC(N2CCN(Cc3ccc(-c4ccccc4Cl)o3)CC2CCO)CC1` (stereo not drawn) it was -26.4%; in that of `CC(=O)Nc1ccc(C(=O)OCC(=O)NC2CCCCCCC2)cc1`, 14.1%; in that of `Cc1cccn2c(=O)c(C(=O)NC3CCCCC3)c(O)nc12`, 42.3%.
Regarding `OCCC1CN(Cc2ccc(Oc3ncccn3)cc2)CCN1C1CCCCC1` (stereo not drawn), the “hERG current change (%, negative = inhibition) at 1uM” value stood at 9.05%.
In the case of `Cc1cc(C)cc(NC(=O)Nc2ccc3c(c2)CCC3)c1` it was 16%.
Regarding `O=C(NCC1CCCO1)c1cccc(S(=O)(=O)NCc2ccccc2)c1` (stereo not drawn), the “hERG current change (%, negative = inhibition) at 1uM” value stood at 7.67%.
Under `O=C(CN1CCN(C(=O)COc2cccc(F)c2)CC1)Nc1ccc(Cl)c(C(F)(F)F)c1` stands 2.21%.
`Cc1nn(C)c(C(=O)Nc2ccn(C34CC5CC(CC(C5)C3)C4)n2)c1[N+](=O)[O-]`: the “hERG current change (%, negative = inhibition) at 1uM” value turned out to be 3.27%.
Under `CC(C(=O)OCC(=O)c1ccccc1)N1C(=O)c2ccccc2C1=O` (stereo not drawn) stands 8.42%.
Take `NC(=O)CC1Nc2cccc3cccc(c23)NC1=O` (stereo not drawn): the “hERG current change (%, negative = inhibition) at 1uM” value stood at 5.48%.
On to `Cc1ccccc1OCC1Cn2c(nc3c2c(=O)[nH]c(=O)n3C)O1` (stereo not drawn), for which the “hERG current change (%, negative = inhibition) at 1uM” value is on record as -7.23%.
Under `O=C1C=CC(=O)N1c1ccc(OC(F)F)cc1` stands 5.49%; under `O=C(CN1CCN(c2ccc(O)cc2)CC1)Nc1cc([N+](=O)[O-])ccc1Cl`, 11.3%.
Take `Cc1ccc(S(=O)(=O)NCC(=O)OCc2cc(=O)oc3c(C)c(C)ccc23)cc1C`: the “hERG current change (%, negative = inhibition) at 1uM” value is recorded as -10.9%.
Under `CCN(CC)C(=O)Oc1ccc(Cl)c2cccnc12` stands 12.2%.
In the case of `COc1ccc(NC(=O)c2nc[nH]c2C(=O)NCC(=O)OC(C)(C)C)cc1` it was 4.71%; in that of `COc1cccc(-n2cc(CNCc3c(C(=O)N(C)C)nc4ccc(Cl)cn34)cn2)c1`, 3.35%; in that of `O=C1c2ccc(-c3ccc(F)cc3OCc3ccccc3)cc2S(=O)(=O)c2cccc(C(=O)N3CCCC3)c21`, 10.9%.
